# Source: the supplement of paper PMC8728848
# This is one part of the list.
# B1: Surfactant Protein D (Human); Neck + Carbohydrate Recognition Domain (NCRD) (Homo sapiens) (protein)
# chain: MLLFLLSALVLLTQPLGYLEAEMKTYSHRTMPSACTLVMCSSVESGLPGRDRDGREGPRGEKGDPGLPGAAGQAGMPGQAGPVGPKGDNGSVGEPGPKGDTGPSGPPGPPGVPGPAGREGALGKQGNIGPQGKPGPKGEAGPKGEVGAPGMQGSAGARGLAGPKGERGVPGERGVPGNTGAAGSAGAMGPQGSPGARGPPGLKGDKGIPGDKGAKGESGLPDVASLRQQVEALQGQVQHLQAAFSQYKKVELFPNGQSVGEKIFKTAQFVKPFTEAQLLCTQAGGQLASPRSAAENAALQQLVVAKNEAAFLSMTDSKTEGKFTYPTGESLVYSNWAPGEPNDDGGSEDCVEIFTNGKWNDRACGEKRLVVCEF
# Legend:
# Experiment in all cases: glycan array binding signal (z-score within array); higher = stronger binding
# Conditions in all cases: glycan notation: IUPAC condensed, linker removed
# [1] = target: Neu5Ac(a2-3)Gal(b1-3)[Fuc(a1-4)]GlcNAc(b1-3)Gal(b1-4)[Fuc(a1-3)]GlcNAc
# Procedure, shortened: (§1)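 Glycan array binding is given as a within-array Z-score, which can be read as non-binding when negative. The arrays, 3228 of them, came from the Consortium for Functional Glycomics database and were retained only where the protein sequence was available. Z-scores were averaged across arrays of the same protein sequence at different concentrations or buffers and across linkers.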
# [2] = target: Neu5Ac(a2-3)Gal(b1-3)[Neu5Ac(a2-3)Gal(b1-4)]GlcNAc
# Procedure, shortened: as §1
# [3] = target: Neu5Ac(a2-3)Gal(b1-3)[Neu5Ac(a2-6)]GalNAc
# Procedure, shortened: as §1
# Neu5Ac(a2-3)Gal(b1-4)Glc = target: Neu5Ac(a2-3)Gal(b1-4)Glc
# Procedure, shortened: as §1
# [4] = target: Neu5Ac(a2-3)Gal(b1-4)GlcNAc
# Procedure, shortened: as §1
# [5] = target: Neu5Ac(a2-3)Gal(b1-4)GlcNAc(b1-2)Man(a1-3)[GlcNAc(b1-2)Man(b1-4)GlcNAc(b1-2)Man(a1-6)]Man(b1-4)GlcNAc(b1-4)GlcNAc
# Procedure, shortened: as §1
# [6] = target: Neu5Ac(a2-3)Gal(b1-4)GlcNAc(b1-2)Man(a1-3)[Neu5Ac(a2-6)Gal(b1-4)GlcNAc(b1-2)Man(a1-6)]Man(b1-4)GlcNAc(b1-4)GlcNAc
# Procedure, shortened: as §1
# [7] = target: Neu5Ac(a2-3)Gal(b1-4)GlcNAc(b1-3)Gal(b1-3)GlcNAc
# Procedure, shortened: as §1
# [8] = target: Neu5Ac(a2-3)Gal(b1-4)GlcNAc(b1-3)Gal(b1-4)GlcNAc
# Procedure, shortened: as §1
# [9] = target: Neu5Ac(a2-3)Gal(b1-4)GlcNAc(b1-3)Gal(b1-4)GlcNAc(b1-3)Gal(b1-4)GlcNAc
# Procedure, shortened: as §1
# [10] = target: Neu5Ac(a2-3)Gal(b1-4)GlcNAc(b1-3)Gal(b1-4)[Fuc(a1-3)]GlcNAc
# Procedure, shortened: as §1
# [11] = target: Neu5Ac(a2-3)Gal(b1-4)GlcNAc(b1-6)[Gal(b1-3)]GalNAc
# Procedure, shortened: as §1
# [12] = target: Neu5Ac(a2-3)Gal(b1-4)GlcNAc(b1-6)[Neu5Ac(a2-3)Gal(b1-3)]GalNAc
# Procedure, shortened: as §1
# [13] = target: Neu5Ac(a2-3)Gal(b1-4)GlcNAc6S
# Procedure, shortened: as §1
# [14] = target: Neu5Ac(a2-3)Gal(b1-4)[Fuc(a1-3)]GlcNAc
# Procedure, shortened: as §1
# [15] = target: Neu5Ac(a2-3)Gal(b1-4)[Fuc(a1-3)]GlcNAc(b1-3)Gal
# Procedure, shortened: as §1
# [16] = target: Neu5Ac(a2-3)Gal(b1-4)[Fuc(a1-3)]GlcNAc(b1-3)Gal(b1-4)GlcNAc
# Procedure, shortened: as §1
# [17] = target: Neu5Ac(a2-3)Gal(b1-4)[Fuc(a1-3)]GlcNAc(b1-3)Gal(b1-4)[Fuc(a1-3)]GlcNAc(b1-3)Gal(b1-4)[Fuc(a1-3)]GlcNAc
# Procedure, shortened: as §1
# [18] = target: Neu5Ac(a2-3)Gal(b1-4)[Fuc(a1-3)]GlcNAc(b1-6)[Gal(b1-3)]GalNAc
# Procedure, shortened: as §1
# [19] = target: Neu5Ac(a2-3)Gal(b1-4)[Fuc(a1-3)]GlcNAc6S
# Procedure, shortened: as §1
# [20] = target: Neu5Ac(a2-3)Gal6S(b1-4)GlcNAc
# Procedure, shortened: as §1
# [21] = target: Neu5Ac(a2-3)Gal6S(b1-4)[Fuc(a1-3)]GlcNAc
# Procedure, shortened: as §1
# Neu5Ac(a2-3)GalNAc = target: Neu5Ac(a2-3)GalNAc
# Procedure, shortened: as §1
# [22] = target: Neu5Ac(a2-3)GalNAc(b1-4)GlcNAc
# Procedure, shortened: as §1
# [23] = target: Neu5Ac(a2-3)[GalNAc(b1-4)]Gal(b1-4)Glc
# Procedure, shortened: as §1
# [24] = target: Neu5Ac(a2-3)[GalNAc(b1-4)]Gal(b1-4)GlcNAc
# Procedure, shortened: as §1
# [25] = target: Neu5Ac(a2-3)[Neu5Ac(a2-6)]GalNAc
# Procedure, shortened: as §1
# Neu5Ac(a2-6)Gal = target: Neu5Ac(a2-6)Gal
# Procedure, shortened: as §1
# Neu5Ac(a2-6)Gal(b1-4)Glc = target: Neu5Ac(a2-6)Gal(b1-4)Glc
# Procedure, shortened: as §1
# [26] = target: Neu5Ac(a2-6)Gal(b1-4)GlcNAc
# Procedure, shortened: as §1
# [27] = target: Neu5Ac(a2-6)Gal(b1-4)GlcNAc(b1-2)Man(a1-3)[Gal(b1-4)GlcNAc(b1-2)Man(a1-6)]Man(b1-4)GlcNAc(b1-4)GlcNAc
# Procedure, shortened: as §1
# [28] = target: Neu5Ac(a2-6)Gal(b1-4)GlcNAc(b1-2)Man(a1-3)[GlcNAc(b1-2)Man(a1-6)]Man(b1-4)GlcNAc(b1-4)GlcNAc
# Procedure, shortened: as §1
# [29] = target: Neu5Ac(a2-6)Gal(b1-4)GlcNAc(b1-2)Man(a1-3)[GlcNAc(b1-2)Man(b1-4)GlcNAc(b1-2)Man(a1-6)]Man(b1-4)GlcNAc(b1-4)GlcNAc
# Procedure, shortened: as §1
# [30] = target: Neu5Ac(a2-6)Gal(b1-4)GlcNAc(b1-2)Man(a1-3)[Neu5Ac(a2-6)Gal(b1-4)GlcNAc(b1-2)Man(a1-6)]Man(b1-4)GlcNAc(b1-4)GlcNAc
# Procedure, shortened: as §1
# [31] = target: Neu5Ac(a2-6)Gal(b1-4)GlcNAc(b1-2)Man(a1-6)[Gal(b1-4)GlcNAc(b1-2)Man(a1-3)]Man(b1-4)GlcNAc(b1-4)GlcNAc
# Procedure, shortened: as §1
# [32] = target: Neu5Ac(a2-6)Gal(b1-4)GlcNAc(b1-2)Man(a1-6)[GlcNAc(b1-2)Man(a1-3)]Man(b1-4)GlcNAc(b1-4)GlcNAc
# Procedure, shortened: as §1
# [33] = target: Neu5Ac(a2-6)Gal(b1-4)GlcNAc(b1-3)Gal(b1-4)GlcNAc
# Procedure, shortened: as §1
# [34] = target: Neu5Ac(a2-6)Gal(b1-4)GlcNAc(b1-3)Gal(b1-4)[Fuc(a1-3)]GlcNAc(b1-3)Gal(b1-4)[Fuc(a1-3)]GlcNAc
# Procedure, shortened: as §1
# [35] = target: Neu5Ac(a2-6)Gal(b1-4)GlcNAc6S
# Procedure, shortened: as §1
# Neu5Ac(a2-6)GalNAc = target: Neu5Ac(a2-6)GalNAc
# Procedure, shortened: as §1
# [36] = target: Neu5Ac(a2-6)GalNAc(b1-4)GlcNAc
# Procedure, shortened: as §1
# Neu5Ac(a2-8)Neu5Ac = target: Neu5Ac(a2-8)Neu5Ac
# Procedure, shortened: as §1
# [37] = target: Neu5Ac(a2-8)Neu5Ac(a2-3)Gal(b1-4)Glc
# Procedure, shortened: as §1
# [38] = target: Neu5Ac(a2-8)Neu5Ac(a2-3)[GalNAc(b1-4)]Gal(b1-4)Glc
# Procedure, shortened: as §1
# [39] = target: Neu5Ac(a2-8)Neu5Ac(a2-8)Neu5Ac
# Procedure, shortened: as §1
# [40] = target: Neu5Ac(a2-8)Neu5Ac(a2-8)Neu5Ac(a2-3)Gal(b1-4)Glc
# Procedure, shortened: as §1
# [41] = target: Neu5Ac(a2-8)Neu5Ac(a2-8)Neu5Ac(a2-3)[GalNAc(b1-4)]Gal(b1-4)Glc
# Procedure, shortened: as §1
# [42] = target: Neu5Ac(a2-8)Neu5Ac(a2-8)Neu5Ac(a2-8)Neu5Ac(a2-3)[GalNAc(b1-4)]Gal(b1-4)Glc
# Procedure, shortened: as §1
# [43] = target: Neu5Ac(b2-6)Gal(b1-4)GlcNAc
# Procedure, shortened: as §1
# Neu5Ac(b2-6)GalNAc = target: Neu5Ac(b2-6)GalNAc
# Procedure, shortened: as §1
# [44] = target: Neu5Ac9Ac(a2-6)Gal(b1-4)GlcNAc
# Procedure, shortened: as §1
# [45] = target: Neu5Gc(a2-3)Gal(b1-3)GlcNAc
# Procedure, shortened: as §1
# [46] = target: Neu5Gc(a2-3)Gal(b1-3)[Fuc(a1-4)]GlcNAc
# Procedure, shortened: as §1
# Neu5Gc(a2-3)Gal(b1-4)Glc = target: Neu5Gc(a2-3)Gal(b1-4)Glc
# Procedure, shortened: as §1
# [47] = target: Neu5Gc(a2-3)Gal(b1-4)GlcNAc
# Procedure, shortened: as §1
# [48] = target: Neu5Gc(a2-3)Gal(b1-4)[Fuc(a1-3)]GlcNAc
# Procedure, shortened: as §1
# [49] = target: Neu5Gc(a2-6)Gal(b1-4)GlcNAc
# Procedure, shortened: as §1
# Neu5Gc(a2-6)GalNAc = target: Neu5Gc(a2-6)GalNAc
# Procedure, shortened: as §1
# [50] = target: Neu5Gc(b2-6)Gal(b1-4)GlcNAc
# Procedure, shortened: as §1
binder,measurement,setting,value
B1,glycan array binding signal (z-score),[1],0.1
same,glycan array binding signal (z-score),[2],-0.275
same,glycan array binding signal (z-score),[3],-0.246
same,glycan array binding signal (z-score),Neu5Ac(a2-3)Gal(b1-4)Glc,-0.059
same,glycan array binding signal (z-score),[4],-0.267
same,glycan array binding signal (z-score),[5],-0.092
same,glycan array binding signal (z-score),[6],-0.264
same,glycan array binding signal (z-score),[7],-0.24
same,glycan array binding signal (z-score),[8],-0.21
same,glycan array binding signal (z-score),[9],-0.279
same,glycan array binding signal (z-score),[10],-0.259
same,glycan array binding signal (z-score),[11],-0.27
same,glycan array binding signal (z-score),[12],-0.162
same,glycan array binding signal (z-score),[13],-0.26
same,glycan array binding signal (z-score),[14],-0.275
same,glycan array binding signal (z-score),[15],-0.278
same,glycan array binding signal (z-score),[16],-0.174
same,glycan array binding signal (z-score),[17],-0.149
same,glycan array binding signal (z-score),[18],0.276
same,glycan array binding signal (z-score),[19],-0.241
same,glycan array binding signal (z-score),[20],-0.253
same,glycan array binding signal (z-score),[21],-0.254
same,glycan array binding signal (z-score),Neu5Ac(a2-3)GalNAc,-0.241
same,glycan array binding signal (z-score),[22],-0.281
same,glycan array binding signal (z-score),[23],-0.277
same,glycan array binding signal (z-score),[24],-0.237
same,glycan array binding signal (z-score),[25],-0.296
same,glycan array binding signal (z-score),Neu5Ac(a2-6)Gal,-0.239
same,glycan array binding signal (z-score),Neu5Ac(a2-6)Gal(b1-4)Glc,-0.244
same,glycan array binding signal (z-score),[26],-0.27
same,glycan array binding signal (z-score),[27],-0.248
same,glycan array binding signal (z-score),[28],-0.267
same,glycan array binding signal (z-score),[29],-0.171
same,glycan array binding signal (z-score),[30],-0.262
same,glycan array binding signal (z-score),[31],-0.271
same,glycan array binding signal (z-score),[32],-0.273
same,glycan array binding signal (z-score),[33],-0.277
same,glycan array binding signal (z-score),[34],0.12
same,glycan array binding signal (z-score),[35],-0.259
same,glycan array binding signal (z-score),Neu5Ac(a2-6)GalNAc,-0.269
same,glycan array binding signal (z-score),[36],-0.254
same,glycan array binding signal (z-score),Neu5Ac(a2-8)Neu5Ac,-0.171
same,glycan array binding signal (z-score),[37],-0.177
same,glycan array binding signal (z-score),[38],-0.238
same,glycan array binding signal (z-score),[39],-0.221
same,glycan array binding signal (z-score),[40],-0.29
same,glycan array binding signal (z-score),[41],-0.258
same,glycan array binding signal (z-score),[42],-0.234
same,glycan array binding signal (z-score),[43],-0.288
same,glycan array binding signal (z-score),Neu5Ac(b2-6)GalNAc,-0.258
same,glycan array binding signal (z-score),[44],-0.282
same,glycan array binding signal (z-score),[45],-0.278
same,glycan array binding signal (z-score),[46],-0.276
same,glycan array binding signal (z-score),Neu5Gc(a2-3)Gal(b1-4)Glc,-0.202
same,glycan array binding signal (z-score),[47],-0.27
same,glycan array binding signal (z-score),[48],-0.261
same,glycan array binding signal (z-score),[49],-0.263
same,glycan array binding signal (z-score),Neu5Gc(a2-6)GalNAc,-0.247
same,glycan array binding signal (z-score),[50],-0.243
